# Results as given in patent US9650358B2 (priority 2013, dated 2017).
# System: H929 cells
# Experiment: cells
# Conditions: Homo sapiens, NCI-H929, 24 h, read-out: H929 viability EC50
row,Structure (SMILES),EC50
1,"O=C(Nc1cc(-c2ccc3ncn(Cc4cccnc4)c3c2)c(Cl)cn1)[C@@H]1CCCNC1 [Example 22, (3R)—N-{5-chloro-4-[1-(pyridin-3-ylmethyl)-1H-benzimidazol-6-yl]pyridin-2-yl}piperidine-3-carboxamide]",390 nM
2,"O=C(Nc1cc(-c2cnc3ccn(Cc4cccc(F)c4)c3c2)c(Cl)cn1)[C@@H]1CCCNC1 [Example 33, (3R)—N-{5-chloro-4-[1-(3-fluorobenzyl)-1H-pyrrolo[3,2-b]pyridin-6-yl]pyridin-2-yl}piperidine-3-carboxamide]",430 nM
3,"CS(=O)(=O)CCn1cnc2ccc(-c3cc(NC(=O)[C@@H]4CCCNC4)ncc3Cl)cc21 [Example 111, (3R)—N-(5-chloro-4-{1-[2-(methylsulfonyl)ethyl]-1H-benzimidazol-6-yl}pyridin-2-yl)piperidine-3-carboxamide]",1100 nM
4,"O=C(Nc1cc(-c2ccc3ncn(CC4CCS(=O)(=O)C4)c3c2)c(Cl)cn1)[C@@H]1CCCNC1 (stereo partly drawn) [Example 20, (3R)—N-(5-chloro-4-{1-[(1,1-dioxidotetrahydrothiophen-3-yl)methyl]-1H-benzimidazol-6-yl}pyridin-2-yl)piperidine-3-carboxamide]",680 nM
5,"O=C(Nc1cc(-c2ccc3ncn(Cc4cccc(F)c4)c3c2)c(Cl)cn1)C1CCc2nccn2C1 (centres unmarked) [Example 276, N-{5-chloro-4-[1-(3-fluorobenzyl)-1H-benzimidazol-6-yl]pyridin-2-yl}-5,6,7,8-tetrahydroimidazo[1,2-a]pyridine-6-carboxamide]",120 nM
6,"O=C(Nc1cc(-c2ccc3ncn(Cc4cccs4)c3c2)c(Cl)cn1)[C@@H]1CCCNC1 [Example 324, (3R)—N-{5-chloro-4-[1-(thiophen-2-ylmethyl)-1H-benzimidazol-6-yl]pyridin-2-yl}piperidine-3-carboxamide]",280 nM
7,"CC(C)(O)CCNc1cc(-c2ccc3ncn(Cc4cccc(F)c4)c3c2)c(Cl)cn1 [Example 59, 4-({5-chloro-4-[1-(3-fluorobenzyl)-1H-benzimidazol-6-yl]pyridin-2-yl}amino)-2-methylbutan-2-ol]",840 nM
8,"Cc1ccc(C2(CCNc3cc(-c4ccc5ncn(Cc6cccc(F)c6)c5c4)c(Cl)cn3)CCNCC2)cc1 [Example 117, 5-chloro-4-[1-(3-fluorobenzyl)-1H-benzimidazol-6-yl]-N-{2-[4-(4-methylphenyl)piperidin-4-yl]ethyl}pyridin-2-amine]",1500 nM
9,"Fc1cccc(Cn2cnc3ccc(-c4cc(N[C@H]5CC[C@H](NCC6CC6)CC5)ncc4Cl)cc32)c1 [Example 235, trans-N-{5-chloro-4-[1-(3-fluorobenzyl)-1H-benzimidazol-6-yl]pyridin-2-yl}-N′-(cyclopropylmethyl)cyclohexane-1,4-diamine]",150 nM
10,"C[C@H](c1cccc(F)c1)n1nnc2ccc(-c3cc(NC(=O)[C@@H]4CCCNC4)ncc3Cl)cc21 [Example 145, (3R)—N-(5-chloro-4-{1-[(1R)-1-(3-fluorophenyl)ethyl]-1H-benzotriazol-6-yl}pyridin-2-yl)piperidine-3-carboxamide]",370 nM
11,"CCOC(=O)NS(=O)(=O)N1CCC[C@@H](C(=O)Nc2cc(-c3ccc4ncn(CC5CCOCC5)c4c3)c(Cl)cn2)C1 [Example 330, ethyl {[(3R)-3-({5-chloro-4-[1-(tetrahydro-2H-pyran-4-ylmethyl)-1H-benzimidazol-6-yl]pyridin-2-yl}carbamoyl)piperidin-1-yl]sulfonyl}carbamate]",6400 nM
12,"CNCCCCNc1cc(-c2ccc3ncn(Cc4cccc(F)c4)c3c2)c(Cl)cn1 [Example 93, N-{5-chloro-4-[1-(3-fluorobenzyl)-1H-benzimidazol-6-yl]pyridin-2-yl}-N′-methylbutane-1,4-diamine]",530 nM
13,"O=C(Nc1cc(-c2ccc3ncn(Cc4cccc(F)c4)c3c2)c(Cl)cn1)C1CCC(O)(C(F)(F)F)CC1 (centres unmarked) [Example 194, N-{5-chloro-4-[1-(3-fluorobenzyl)-1H-benzimidazol-6-yl]pyridin-2-yl}-4-hydroxy-4-(trifluoromethyl)cyclohexanecarboxamide]",270 nM
14,"O=C(Nc1cc(-c2ccc3ncn(CC4CCOCC4)c3c2)c(Cl)cn1)C1CCc2nncn2C1 (centres unmarked) [Example 283, N-{5-chloro-4-[1-(tetrahydro-2H-pyran-4-ylmethyl)-1H-benzimidazol-6-yl]pyridin-2-yl}-5,6,7,8-tetrahydro[1,2,4]triazolo[4,3-a]pyridine-6-carboxamide]",> 10000 nM
15,"O=C(Cn1ccc2ncc(-c3cc(NC(=O)[C@@H]4CCCNC4)ncc3Cl)cc21)C1CCOCC1 [Example 306, (3R)—N-(5-chloro-4-{1-[2-oxo-2-(tetrahydro-2H-pyran-4-yl)ethyl]-1H-pyrrolo[3,2-b]pyridin-6-yl}pyridin-2-yl)piperidine-3-carboxamide]",6900 nM
16,"Fc1cccc(Cn2cnc3ccc(-c4cc(NC5CCC56CCNCC6)ncc4Cl)cc32)c1 (centres unmarked) [Example 106, N-{5-chloro-4-[1-(3-fluorobenzyl)-1H-benzimidazol-6-yl]pyridin-2-yl}-7-azaspiro[3.5]nonan-1-amine]",1700 nM

row,Structure (SMILES),EC50
1,"Fc1cccc(Cn2cnc3ccc(-c4cc(N[C@H]5CC[C@H](NCc6nccs6)CC5)ncc4Cl)cc32)c1 [Example 229, trans-N-{5-chloro-4-[1-(3-fluorobenzyl)-1H-benzimidazol-6-yl]pyridin-2-yl}-N′-(1,3-thiazol-2-ylmethyl)cyclohexane-1,4-diamine]",160 nM
2,"O=C(Nc1cc(-c2ccc3ncn(Cc4cccc(F)c4)c3c2)c(Cl)cn1)C1CCc2nncn2C1 (centres unmarked) [Example 275, N-{5-chloro-4-[1-(3-fluorobenzyl)-1H-benzimidazol-6-yl]pyridin-2-yl}-5,6,7,8-tetrahydro[1,2,4]triazolo[4,3-a]pyridine-6-carboxamide]",1500 nM
3,"O=C(Nc1cc(-c2cnc3ccn(Cc4cncc(F)c4)c3c2)c(Cl)cn1)[C@@H]1CCCNC1 [Example 317, (3R)—N-(5-chloro-4-{1-[(5-fluoropyridin-3-yl)methyl]-1H-pyrrolo[3,2-b]pyridin-6-yl}pyridin-2-yl)piperidine-3-carboxamide]",960 nM
4,"COc1ccc(C2(CCNc3cc(-c4ccc5ncn(Cc6cccc(F)c6)c5c4)c(Cl)cn3)CCNCC2)cc1 [Example 118, 5-chloro-4-[1-(3-fluorobenzyl)-1H-benzimidazol-6-yl]-N-{2-[4-(4-methoxyphenyl)piperidin-4-yl]ethyl}pyridin-2-amine]",1700 nM
5,"Fc1cccc(Cn2cnc3ccc(-c4cc(N[C@H]5CC[C@H](NCc6ccc7c(c6)OCO7)CC5)ncc4Cl)cc32)c1 [Example 228, trans-N-(1,3-benzodioxol-5-ylmethyl)-N′-{5-chloro-4-[1-(3-fluorobenzyl)-1H-benzimidazol-6-yl]pyridin-2-yl}cyclohexane-1,4-diamine]",380 nM
6,"Fc1cccc(Cn2cnc3ccc(-c4cc(NCCc5ccccn5)ncc4Cl)cc32)c1 [Example 58, 5-chloro-4-[1-(3-fluorobenzyl)-1H-benzimidazol-6-yl]-N-[2-(pyridin-2-yl)ethyl]pyridin-2-amine]",3100 nM
7,"Cn1cnc2ccc(-c3ccnc(NC(=O)[C@@H]4CCCNC4)c3)cc21 [Example 336, (3R)—N-[4-(1-methyl-1H-benzimidazol-6-yl)pyridin-2-yl]piperidine-3-carboxamide]",480 nM
8,"O=C1CC[C@H](C(=O)Nc2cc(-c3ccc4ncn(CC5CCOCC5)c4c3)c(Cl)cn2)N1 [Example 288, N-{5-chloro-4-[1-(tetrahydro-2H-pyran-4-ylmethyl)-1H-benzimidazol-6-yl]pyridin-2-yl}-5-oxo-D-prolinamide]",1400 nM
9,"NS(=O)(=O)CC(=O)Nc1cc(-c2ccc3ncn(CC4CCOCC4)c3c2)c(Cl)cn1 [Example 286, N-{5-chloro-4-[1-(tetrahydro-2H-pyran-4-ylmethyl)-1H-benzimidazol-6-yl]pyridin-2-yl}-2-sulfamoylacetamide]",2400 nM
10,"Fc1cccc(Cn2cnc3ccc(-c4cc(N[C@H]5CC[C@H](NCCN6CCOCC6)CC5)ncc4Cl)cc32)c1 [Example 231, trans-N-{5-chloro-4-[1-(3-fluorobenzyl)-1H-benzimidazol-6-yl]pyridin-2-yl}-N′-[2-(morpholin-4-yl)ethyl]cyclohexane-1,4-diamine]",140 nM
11,"O=C1NC2CC(C(=O)Nc3cc(-c4ccc5ncn(CC6CCOCC6)c5c4)c(Cl)cn3)CC2O1 (centres unmarked) [Example 211, N-{5-chloro-4-[1-(tetrahydro-2H-pyran-4-ylmethyl)-1H-benzimidazol-6-yl]pyridin-2-yl}-2-oxohexahydro-2H-cyclopenta[d][1,3]oxazole-5-carboxamide]",800 nM
12,"CN(C)S(=O)(=O)NCC(=O)Nc1cc(-c2ccc3ncn(CC4CCOCC4)c3c2)c(Cl)cn1 [Example 289, N-{5-chloro-4-[1-(tetrahydro-2H-pyran-4-ylmethyl)-1H-benzimidazol-6-yl]pyridin-2-yl}-N^2-(dimethylsulfamoyl)glycinamide]",2400 nM
13,"O=C(Nc1cc(-c2cc3c(cc2Cl)ncn3CC2CCOCC2)c(Cl)cn1)[C@@H]1CCCNC1 [Example 147, (3R)—N-{5-chloro-4-[5-chloro-1-(tetrahydro-2H-pyran-4-ylmethyl)-1H-benzimidazol-6-yl]pyridin-2-yl}piperidine-3-carboxamide]",850 nM
14,"Fc1cccc(Cn2cnc3ccc(-c4cc(NC5CC6CCCC(C5)N6)ncc4Cl)cc32)c1 (centres unmarked) [Example 124, N-{5-chloro-4-[1-(3-fluorobenzyl)-1H-benzimidazol-6-yl]pyridin-2-yl}-9-azabicyclo[3.3.1]nonan-3-amine]",4500 nM
15,"O=C(O)[C@H]1CC[C@@H](Nc2cc(-c3ccc4ncn(Cc5cccc(F)c5)c4c3)c(Cl)cn2)CC1 [Example 339, cis-4-({5-chloro-4-[1-(3-fluorobenzyl)-1H-benzimidazol-6-yl]pyridin-2-yl}amino)cyclohexanecarboxylic acid]",8900 nM
16,"O=C(Nc1cc(-c2cnc3ccn(CC(O)C4CCOCC4)c3c2)c(Cl)cn1)[C@@H]1CCCNC1 (stereo partly drawn) [Example 307, (3R)—N-(5-chloro-4-{1-[2-hydroxy-2-(tetrahydro-2H-pyran-4-yl)ethyl]-1H-pyrrolo[3,2-b]pyridin-6-yl}pyridin-2-yl)piperidine-3-carboxamide]",> 10000 nM
